The values below come from the RNAGym collection of RNA variant scans (doi:10.7554/elife.90254).

The source gives no read counts; variants with many changes may rest on few reads.

B1: OR4K15 (parent)
chain: GUUAACGGUCAUAGGCCAUGGAAACUAGGAGCACCAUUUCGCUGCCAGUGAAGAAAUGAACAAAGAAAAUCUGGGCCAGGCAGGCAUCAAAAGAAAUAGUCUUGCGCUCAACCAGAAAGUCUGUAAUCAUUUUAAGGGUA

Variants of B1 are the subject of this data set. Description: self-cleavage, relative activity (ratio to wild type); higher = more cleavage; in vitro, sequencing; the parent is a self-cleaving ribozyme.
Regarding A51U U100C U122C U132A, the self-cleavage was 2.65. For A51G A62G U70C A89G C109A U122C the value was 0.03; for A52G C101A A116G A125G, 0. On to A51G U103C A110G, for which the self-cleavage amounted to 0.09. For A51G A52G A111G the value was 0.01; for A52G A67G A91G, 1.23; for A51U A95G A96G, 1.76. For A51G A68G A78G U97C A111G U131C the value was 0.01; for A51G U70C A118G, 0.23; for A51G A59G A62G A69U, 1.16. With A52G A68G C113A U139A, the self-cleavage was found to be 0.05. The figure for A52G A56G A60G A62U A66G A69G U97C is 0.53; for A51G U72C U108C A118U it is 0; for A52G A91G A111G A114G U120C it is 0. The figure for A52G A82G G99A is 0.08; for A51U A67G U70C U139C it is 0.61; for A52G A91G U131C it is 0.51. The figure for A51G A82G U87C is 0.54; for A51U A59G A62G G74A A114C U130C it is 0; for A51U A66G A68U it is 1.35. Consider A52G A59U A86G A98G, for which the self-cleavage is 0.15. For A51G A86G U139A the value was 1.83; for A51G A54U A90G, 1.93. The figure for A52G A56G U72A A117U is 0.33. The figure for A51G A59G U70C is 0.53; for A51G A69G U108C U132C it is 0.01; for A52G A60G A90U it is 1.62. For A51G A94G C121U, the self-cleavage stood at 1.62.

As to A52G A86G U120C A140G, the self-cleavage was determined as 1.33. For A51G A63G U87C U102C A117G the value was 2.5; for A51G A110G U122G, 0.19. In the case of A51G A60G C77U, the self-cleavage amounted to 0.08. The figure for A52G U70A U139C is 1.16; for A54C A78U A126G it is 0.11; for A52G A116G U127C it is 0.39. For A51U U72C A111G the value was 0.04; for A51U A62G A78G A82G U97G U130C, 0.22; for A51G A60U A78U A111G, 0.02. The figure for A54G A56G A91G U100C A134G is 0; for A51G A98G U127A U132C it is 0.9; for A51G A67G A118G it is 2.6. For the variant A52G A54G C61U, the self-cleavage was determined as 1.83. For A52U A68G U72C A98U U108A A140U the value was 0.02; for A51U A92G A117G A135G, 0.31; for A51G U57C U122C, 1.07. A51U A60G G138A: the self-cleavage worked out at 1.29. For A52G A59U U108A the value was 0.01; for A51G U57C A68G G80U, 0.37. The figure for A52G U57C C101U is 0.06; for A54C A66G A91G A95G A134G it is 2.23; for A51G A67U U70C A111G U120C it is 0.1. For A52G A95G A116G the value was 1.9. A52G A68G A69G: the self-cleavage stood at 0.99. For A52G U72C A117G the value was 0.3; for A51G A94G A95G U130C, 1.93; for A52G U72C G73U A90G U108C, 0.02. For A54C A62G A89G the value was 0.3; for A51G A62G A68G A118G, 0.57. A51U U102C A114G: the self-cleavage stood at 0.55. The figure for A52G A55G A134G is 1.69; for A54C A56G U120C it is 0.54; for A51G A64G A82U U130C it is 0.03. Regarding A52G A56G U103C, the self-cleavage came out at 1.03. For A51G U57G A95G A126G A135G the value was 1.27; for A51G A59G U87C, 0.64; for A51G A62G U87C, 0.25. The figure for A52G U103C A114U is 0.03; for A51U U122C U139A it is 1.19.

Turning to A51G A55G U139A, the self-cleavage stood at 0.49.

With A52G A96G A114U, the self-cleavage stood at 0.1. The figure for A52G U70C A118U is 0.52. The figure for A51G A89U A129G is 1.59. For A52U A62U U100C U130C the value was 2.34.

For the variant A51G A82U A95G, the self-cleavage amounted to 0.42. Consider A52G U57C U131C, for which the self-cleavage is 0.11.

In the case of A52G A62G A63G U127C, the self-cleavage was determined as 0.82. The figure for A52G A54G A63G A82G A89G is 0.51; for G53A A62G A67G A78U A135G it is 0.41. For A52G A66G A135U the value was 1.75; for A51G A69G U103C, 0.72; for A51G U103G A134G, 0.

Consider A52G A63G U131C, for which the self-cleavage was 0.89.

As to A51G A111G A134G, the self-cleavage was determined as 0. The figure for A51G A54G A86U A118G is 1.3. The figure for A52G A66G A69U U87A A98G A118G is 0.5; for A51U A90G U103G U108C it is 0.01; for A52G U70C A98U G106A U131C it is 0.01. For the variant G53A A55G A56U A59G A110G A116G, the self-cleavage is 0.03. The figure for A52G A95U A117G is 2.86. For A51G A110G U124C the value was 0.08; for A51G A59G A62G A89G, 0.72; for A51U A78U A95G, 0.84. A52G A62G A68G: the self-cleavage worked out at 0.65. For A51U A91G U100C U102C the value was 1.36. As for A52G A54G A55G A116G, the self-cleavage worked out at 0.1. For the variant A52G A68G U87C U97C A126G, the self-cleavage is 0.38. For A52G G53A A89G the value was 2.36.

For the variant A51G C61G U130G, the self-cleavage amounted to 0. The figure for G53U A59U U72C A94G is 0.24; for A51G A69C A89U U131C it is 0.5.

For A51G A95G U120C, the self-cleavage was 1.59. Regarding G53U U72C G106C, the self-cleavage was found to be 0.02. The figure for A51U A56G A68G A69G is 1.46. In the case of A52G A82C A117G, the self-cleavage stood at 0.31. For A51G A94G A116G the value was 0.17. For A51U A55C A60G A92U A96G A111U U122C the value was 0.02. In the case of A52G A95G A117G, the self-cleavage was 2.29.

Regarding A51U A64G A92G, the self-cleavage is 1.36. The figure for A52G A82U A110G U131C is 0.02. For A51U U57A A62G A92G the value was 0.13.

A52U U103C U127C: the self-cleavage was 0.57. For A52G A95G U133C the value was 2.24. For the variant A52C A55G A82G U103C, the self-cleavage is 0.26. For A52G A86G A134G the value was 1; for A52G A56G A69G, 1.28; for A54G A56G U103C, 0.86.

A52G A62U A63G U127C: the self-cleavage was determined as 0.59. For A51C A89G A91G A92G the value was 0.48; for A52G U70C A90C U122C U131A U139C, 0.11. For A51G A55G U103C A110G the value was 0.04; for A51G A64G G75A A116U, 0. The figure for A52G A91G A92G U122C U130C is 0.6. In the case of A51G A63G A90G, the self-cleavage stood at 1.87. A51G A96G A111G A117G U139C: the self-cleavage was found to be 0. For A51U A89U U100C A114G A129G the value was 0.15; for A52U A62G G80C U100C A117U, 0.

As for A51G U57C A118G U130C, the self-cleavage stood at 0.79. Regarding A52G A89G A134G, the self-cleavage was determined as 0.62.

Regarding A52G U87C U97C U100C, the self-cleavage was determined as 1.93. The figure for A51U A118U G136U is 1.3. The figure for A52G A67G A86U U131C is 1.38; for A51U A66G A94G A126G it is 1.11; for A52G A56G A89U A116G it is 1.18.

Regarding A52G A110G A134G, the self-cleavage turned out to be 0.1. In the case of A52G U120A U139C, the self-cleavage is 2.03.

As for A51G A55G A90G A110G A116G U132G, the self-cleavage was determined as 0. The figure for A51U A54G U120C is 1.04; for A52U A63G U72A U100G it is 0.19; for A52U A86U A89G A94G it is 2.59.

Take A52G A63C U131C: the self-cleavage is 1.4. For A51G A114G U122A the value was 0.12; for A51G U57A A62U, 1.42. In the case of A52U A62G U103C U132A, the self-cleavage amounted to 0.31. The figure for A51G A67G U97C A116G is 0.29; for A52G A54G C88A it is 1.35; for A52G U57A U130C it is 0.77. For the variant A51G A89G A94U U102G, the self-cleavage turned out to be 0.11.

In the case of A51G A62G U108C, the self-cleavage is 0.02.

As for G53A A59G A89G A111U U139G, the self-cleavage came to 0.05. For A51G A54G A66U A82G A89U, the self-cleavage was 0.47.

With A54G A55G A91G A95G, the self-cleavage turned out to be 0.88. The figure for A51G G58A A118G is 0.83. For A52G A54G A86G A94U A96G A111U the value was 0.15; for A52G U97C A111G, 0.03.

For the variant A51G U108C U131C, the self-cleavage stood at 0.

For A51U A86G A94G A118G, the self-cleavage amounted to 0.53. For A51G A92G A96C the value was 0.11.

For the variant A51G A62G A67G U72A A92G A111G, the self-cleavage was determined as 0.04. For A51G U122A A140U the value was 2.32. The figure for A51U A52G A98U is 1.74; for A51G A68G A82G A92G U122C it is 0.12; for A51G A69U A114G it is 1.52. The figure for A52G A68G A116C A118G is 0.09; for A51G A63U A89G U131C it is 1. As for A52G A55G U130C, the self-cleavage is 0.55. For A52G A54U U87C A92G the value was 0.88; for A52G A68G A78U A94G A134G, 0.23.
